PubChem BioAssay AID652104 (National Center for Advancing Translational Sciences (NCATS), 2013)
About 7,200 (1.8%) of roughly 410,000 compounds were called active. This list was built around the results that the source calls inconclusive (neither active nor inactive); the mix of calls is not that of the screen. The call rests on the fitted dose curve; in most records, active means well fitted activation curve with a large enough effect; inconclusive means small, poorly fitted or top-dose-only effect, or another doubt; inactive means no such curve, though single readings can be large or run the other way. Potencies of inconclusive entries are left out as doubtful fits.

test: qHTS of TDP-43 Inhibitors; details: TDP-43 expressing yeast growth rescue, BacTiter-Glo, 24 h; growth rescue (activation): at 46.1 µM (top of the series) unless noted; further: nearly all actives have a fitted effect of over 50% in size; on growth rescue (activation): % of control where 0% means no effect
In short: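 Readout is BacTiter-Glo luminescence of cell growth, so inhibitors register as activators. TDP-43-expressing yeast at OD600=0.02 in galactose medium, after raffinose pregrowth to mid-log, were incubated with compound for 24 hr at 30 deg C.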
Potency means the concentration at half of the fitted maximal effect; tags describe the fitted curve by direction and shape.

Structure (SMILES)	Potency	growth rescue (activation)
CCn1ccc2c(OCC(=O)Nc3ccccc3C(F)(F)F)cccc2c1=O	inconclusive [activator, full curve]	
N/C(=N\OC(=O)CCCc1ccccc1)c1ccc(Br)cc1	inconclusive [activator, partial curve]	
NS(=O)(=O)c1cc2c(cc1C(F)(F)F)NC(Cc1ccccc1)NS2(=O)=O (stereo not given)	inconclusive [activator, partial curve]	
CCCCC1C(=O)NN(c2ccccc2)C1=O (stereo not given)	inconclusive [activator, single point]	
CCn1c2ccccc2c2cc(NC(=O)c3ccc(Br)o3)ccc21	inconclusive [activator, single point]	
CC(O)(c1ccc(F)c(F)c1)c1nc(-c2ccccc2)cs1 (stereo not given)		inconclusive: -62.1% [activator]
CN(C)C(=O)c1ccc(Nc2ncnc3sc4c(c23)CCCCC4)cc1	inconclusive [activator, single point]	
CCOC(=O)c1cc(C(=O)Nc2sc3c(c2C#N)CCCC3)nn1C		inactive: 0.846%
Fc1ccc(CSc2nc3ccccc3[nH]2)c2ccccc12	inconclusive [activator, partial curve]	
CCOC(=O)C(C#N)(Cc1ccc2ccccc2n1)Cc1ccc2ccccc2n1	inconclusive [activator, single point]	
CC1CC(C)(C)NC(=S)N1CCC(=O)N1CCN(Cc2ccccc2)CC1 (stereo not given)		inactive: -6.5%
CCOC(=O)c1cccc(NS(=O)(=O)Cc2ccccc2)c1	inconclusive [activator, single point]	
O=C(NCC1COc2ccccc2O1)c1ccc(NC(=O)c2ccco2)cc1 (stereo not given)	inconclusive [activator, full curve]	
Cc1onc(-c2c(F)cccc2Cl)c1C(=O)OCn1nnc2ccccc2c1=O	inconclusive [activator, single point]	
CN(CC(=O)Nc1cccc(F)c1)C(=O)c1cn(-c2ccccc2)nc1-c1ccc(F)cc1	inconclusive [activator, single point]	
COc1ccc(-c2coc3c(C(=O)NCc4ccccc4)cccc23)c(C)c1	inconclusive [activator, single point]	
CCOC(=O)N1CCN(S(=O)(=O)c2ccc(OC)c3ccccc23)CC1	active: 12.6 µM	
COc1ccc(C(=O)O/N=C(\N)c2ccc(Cl)cc2)cc1	inconclusive [activator, partial curve, poor fit]	
CC(CN1c2ccccc2Sc2ccccc21)N(C)C (stereo not given)	inconclusive [activator, partial curve, poor fit]	
CC(=O)N(c1ccc(N(C(C)=O)S(=O)(=O)c2cccs2)cc1)S(=O)(=O)c1cccs1		inactive: 0%
O=C(c1ccc(S(=O)(=O)Cc2cc(F)ccc2F)c([N+](=O)[O-])c1)N1CCCC1	inconclusive [activator, single point]	
CCCOc1ccc(N2C(=O)CC(N3CCN(c4ccccc4OC)CC3)C2=O)cc1 (stereo not given)	active: 25.1 µM	
CCC1CCCCN1C(=O)CSc1nc2c([nH]c3ccccc32)c(=O)n1-c1ccc(OC)cc1 (stereo not given)	inconclusive [activator, full curve, poor fit]	
O=C(CC(=O)c1ccncc1)c1ccccc1	inconclusive [activator, single point]	

Structure (SMILES)	Potency	growth rescue (activation)
C[C@@H](C(=O)Nc1ccc2ccccc2c1)[C@@H]1C[C@@]1(C)[C@@H](NC(=O)c1ccccc1)c1ccccc1	inconclusive [activator, partial curve]	
CCCOc1ccc(-c2csc3ncn(Cc4ccc(C(=O)O)cc4)c(=O)c23)cc1	active: 25.1 µM	
O=C(Cc1nc2ccccc2[nH]c1=O)c1ccccc1	inconclusive [activator, full curve, poor fit]	
Cn1c(SCc2cccc(C(F)(F)F)c2)nnc1-c1ccco1	active: 20 µM	
Cc1ccc(Cn2c(C(C)NC(=O)c3ccccc3)nc3ccccc32)cc1 (stereo not given)	inconclusive [activator, single point]	
Cc1cc(C)c2c(-n3cccc3)c(C(=O)NNS(=O)(=O)c3ccc(Cl)cc3)sc2n1	inconclusive [activator, single point]	
CC(OC(=O)Cc1ccc(Br)cc1)C(=O)NC1CCCC1 (stereo not given)	inconclusive [activator, partial curve]	
CCCn1c(C)nc2c(c1=O)c1nc3ccccc3nc1n2CCC1=CCCCC1	inconclusive [activator, single point]	
CCOC(=O)C1CCCN(C(=O)c2oc3ccccc3c2C)CC1 (stereo not given)	inconclusive [activator, partial curve]	
O=C(CCCn1cnc([N+](=O)[O-])n1)Nc1cc(Cl)ccc1O		inactive: -2.33%
CCOC(=O)/C=C(C)\C=C\c1c[nH]c2ccccc12	inconclusive [activator, single point]	
Cc1cccc(-c2nnc(NC(=O)c3cccs3)s2)c1		inactive: -0.879%
O=c1c2c3c(sc2nc2n1CCCS2)CCCC3	active: 17.8 µM	
S=c1[nH]nc(-c2cc(-c3ccccn3)nc3ccccc23)o1	active: 3.16 µM	
COc1ccccc1-c1csc(C(O)c2cccc(Cl)c2)n1 (stereo not given)	inconclusive [activator, partial curve, poor fit]	
COc1ccc(N2CC(NC(=O)C(c3ccccc3)c3ccccc3)CC2=O)cc1OC (stereo not given)		inactive: 27.3%
O=C(OCc1nnc(-c2ccccc2)o1)c1ccc(CO)cc1		inactive: 6.27%
Oc1ccccc1C1=Nc2ncnn2C(c2ccc(F)cc2)C1 (stereo not given)	inconclusive [activator, partial curve]	
Cc1cccc(C)c1OCC(O)Cn1c2ccccc2c2ccccc21 (stereo not given)	inconclusive [activator, single point]	
CCn1cc(C(=O)N2CCN(c3cccc(C)c3C)CC2)c2cc(OC)c(OC)cc2c1=O	inconclusive [activator, single point]	
N/C(Cc1ccc([N+](=O)[O-])cc1)=N\OC(=O)c1ccc(Br)cc1		inconclusive: -90.5% [activator]
CC(C)C(=O)Nc1sc2c(c1C#N)CCCCC2	active: 12.6 µM	
CCn1cc2nc(SCC(=O)Nc3ccccc3C(F)(F)F)n(Cc3ccc(C)cc3)c(=O)c2n1	inconclusive [activator, single point]	
O=C(NC1=NCCS1)c1cc(-c2cccs2)nc2ccccc12	inconclusive [activator, single point]	

Structure (SMILES)	Potency	growth rescue (activation)
O=C(NCC1(N2CCCCC2)CCCCC1)c1ccc(NS(=O)(=O)c2ccc(F)cc2)cc1	inconclusive [activator, partial curve]	
Cc1ccc(/C=C/C(=O)OCC(=O)NCc2ccccc2)o1		inactive: -3.33%
CC(C)c1ccc2oc(-c3ccc(N)cc3)nc2c1	inconclusive [activator, single point]	
Cc1sc(=NC(=O)c2ccco2)n(C)c1-c1ccc(Cl)cc1	inconclusive [activator, single point]	
CCC/C=C/c1ccc(CN2C(C(C)C)C(=O)N(Cc3cn(CC4CCCCC4)nn3)CCS2(=O)=O)cc1 (stereo not given)		inactive: 0%
COC(=O)CN(c1nc(C)c(Br)c(OC)n1)S(=O)(=O)c1ccccc1	inconclusive [activator, partial curve, poor fit]	
Cn1cc([C@]2(O)C(=O)Nc3ccc(OC(F)(F)F)cc32)c2ccccc21	inconclusive [activator, partial curve]	
COc1ccc(CC2S/C(=N/N=C/c3ccc(O)cc3)NC2=O)cc1 (stereo not given)		inactive: -11.8%
Clc1cccc(Cc2c(-c3ccccc3)nc3ccc(Cl)cn23)c1	active: 31.6 µM	
CCN(Cc1ccccc1)C(=O)c1ccc(C(=O)N(CC)Cc2ccccc2)cc1		inactive: -0.284%
Nc1c(Nc2ccccc2)c2ccccc2oc1=O	inconclusive [activator, full curve]	
CCc1nc2sc(C(C)=O)c(N)c2c2c1CCCC2	inconclusive [activator, partial curve]	
COC(=O)c1c(-c2ccc(OC)cc2)oc2ccccc12		inactive: 5.73%
CCOC(=O)c1ccc(NC(=O)c2nc[nH]c2C(=O)N2CCC(C)CC2)cc1	inconclusive [activator, partial curve]	
N/C(=N\OC(=O)CCC1CCCCC1)c1cccnc1	active: 12.6 µM	
FC(F)(F)c1ccc(/C=N/N2CCN(Cc3cccc4ccccc34)CC2)cc1	inconclusive [activator, partial curve]	
O=C(COC(=O)/C=C/c1ccc(C(F)(F)F)cc1)NCc1ccco1	active: 17.8 µM	
O=C1c2ccccc2-c2n[nH]c3cccc1c23	inconclusive [activator, partial curve, poor fit]	
Cc1nc(-c2ccccc2)sc1CCNS(=O)(=O)c1ccc(Br)cc1	inconclusive [activator, single point]	
OCCCNc1nc(-c2ccccc2)c2cc(Br)ccc2n1		inactive: 3.53%
O=C(O)CCC(=O)c1ccc2sc3ccccc3c2c1	inconclusive [activator, partial curve]	
CC(C)C(=O)Nc1nc(-c2ccc(S(=O)(=O)N3CCOCC3)cc2)cs1		inactive: -3.3%
